This note sets out measurements from ChEMBL document CHEMBL4888484, “Replenishing the malaria drug discovery pipeline: Screening and hit evaluation of the MMV Hit Generation Library 1 (HGL1) against asexual blood stage Plasmodium falciparum ,using a nano luciferase reporter read-out” (2022).

Each structure is given as a SMILES string. About 540 (0.36%) of roughly 150,000 compounds showed an effect of 50% or more. The list shows a part of the results.

The subject of this assay is Plasmodium falciparum. Put plainly: Primary screen in NF54 nanoGlo assay, in single point, at 2uM, 72h; a lower Z score goes with more inhibition. Format: functional, Erythrocyte. As to conditions: timepoint 72 hour.
By % Inhibition is commonly meant the relative decrease from the control value, in per cent. As to `COc1ccc(N2CCN(C(=O)Cn3nc(C)nc3-c3ccc4ccccc4c3)CC2)cc1`, the “% Inhibition” value is given as -5% and the Z score amounted to 0.79.

As to `CCc1noc(C)c1C(=O)N1CCOCc2ccccc21`, the “% Inhibition” value was 6% and the Z score is given as -1.09.

On to `O=C(Nc1cccnc1)C(=O)N1CCN(c2ncccn2)CC1`, for which the “% Inhibition” value was -9% and the Z score amounted to 1.03.

Take `O=C(Cn1nc2n(c1=O)CCCC2)Nc1ccccc1`: the “% Inhibition” value was determined as 0% and the Z score is listed as -0.07.

In the case of `NC(=O)c1ccc(-c2ccc3oc(C4CC4)nc3c2)cc1`, the “% Inhibition” value was -9% and the Z score came to 1.63.

Regarding `Cc1c(NC(=O)NCC(F)(F)c2cccc(F)c2)nnn1C`, the “% Inhibition” value is given as -9% and the Z score turned out to be 1.41.

Consider `CO[C@H]1C[C@@H](N(C)c2ncc(Cl)c(N(C)[C@H]3C[C@@H](OC)C3)n2)C1`, for which the “% Inhibition” value is listed as -7% and the Z score is recorded as 1.01.

As to `CC(C)(C)OC(=O)N1CCC2(CCC2)[C@@H](C(=O)O)C1`, the “% Inhibition” value is listed as -7% and the Z score came out at 0.73.

`Cc1ccc(Nc2nc(N)nc(CN3C(=O)NC4(CCCCC4C)C3=O)n2)cc1` (centres undefined): the “% Inhibition” value was -8% and the Z score turned out to be 1.24.

In the case of `COc1ccc(CN2C(=O)CO[C@H]3CN(C4CCC4)C[C@H]32)cc1`, the “% Inhibition” value is -2% and the Z score came out at 0.37.

As for `O=C(c1cccc(NCCOc2ccccc2)c1)N1CCC[C@H](O)C1`, the “% Inhibition” value is reported as 3% and the Z score is recorded as -0.49.

For `CC(=O)Nc1ccc(OC[C@H](O)c2ccc(F)cc2)cc1`, the “% Inhibition” value is recorded as -4% and the Z score stood at 0.78.

On to `Cc1ccsc1-c1nccn1CCNC(=O)c1ccc(F)cc1`, for which the “% Inhibition” value was -3% and the Z score worked out at 0.58.

As for `Cc1c(NC(=O)c2cc(O)ncn2)c(=O)n(-c2ccccc2)n1C`, the “% Inhibition” value was -8% and the Z score stood at 1.41.

For the compound `OCCn1ccnc1-c1cccc(Oc2ccccc2)c1`, the “% Inhibition” value was 10% and the Z score is on record as -0.95.

`C[C@]1(C(=O)Nc2nccs2)CC1(Cl)Cl`: the “% Inhibition” value is 4% and the Z score is reported as -0.48.

Take `CCN(CC)c1ccc(Nc2ccc3nnnn3n2)cn1`: the “% Inhibition” value was 0% and the Z score was 0.04.

Consider `COCCn1cnnc1CCn1cnc(-c2ccccc2)c1-c1cccc(C#N)c1`, for which the “% Inhibition” value is listed as -10% and the Z score is 1.18.

As to `C=CCNC(=O)[C@@H](NC(=O)c1ccc(OC)cc1)C1CCN(C(=O)COC)CC1`, the “% Inhibition” value was -4% and the Z score is listed as 0.52.

As to `O=S1(=O)CC[C@H](N(Cc2cc(Cl)c3c(c2)OCCO3)C2CC2)C1`, the “% Inhibition” value was -3% and the Z score came to 0.27.

As for `CN(c1ccccc1NC(=O)N(C[C@H]1CCOC1)C1CC1)C1CCCC1`, the “% Inhibition” value is -18% and the Z score was 2.1.

With `CCc1ncnc(N2CCC[C@H](CNC(=O)Cc3ccc(OC)cc3)C2)c1F`, the “% Inhibition” value was -1% and the Z score is 0.2.

With `Cc1nc(CC(C)C)nc(N2CCN(C(=O)c3cccs3)CC2)c1Cc1ccc(Cl)cc1Cl`, the “% Inhibition” value is recorded as -14% and the Z score was 1.75.

As for `Cc1ccsc1CCNC(=O)C[C@H]1CNCCO1`, the “% Inhibition” value is 0% and the Z score is -0.04.

In the case of `C[C@@H](c1nnc2n1CCCCC2)n1cc(N)cn1`, the “% Inhibition” value stood at 28% and the Z score is on record as -3.21.

Consider `CC(=O)N1CCCN(C2CN(Cc3cccc(C)c3)CC2C)CC1` (centres undefined), for which the “% Inhibition” value was -1% and the Z score amounted to 0.07.

Consider `Cc1csc(NC(=O)C2CCN(c3cc(-n4cncn4)ncn3)CC2)n1`, for which the “% Inhibition” value is given as 11% and the Z score was -1.45.

On to `CCNC(=O)C(C)(C)CN[C@H]1CC(C)(C)OC1(C)C`, for which the “% Inhibition” value amounted to 3% and the Z score is -0.59.

Regarding `CCN(CCOC)c1cc(C(N)=O)nc(N(CC)CCOC)n1`, the “% Inhibition” value is listed as -2% and the Z score turned out to be 0.49.

On to `CN(CC1CCCC1O)C(=O)NCc1cnc(-c2ccccc2)s1` (centres undefined), for which the “% Inhibition” value was -3% and the Z score stood at 0.44.

For `Cc1nc(O)c(Cl)c(NCC[C@H]2CCCN(C)C2)n1`, the “% Inhibition” value is listed as -10% and the Z score was determined as 1.94.

Turning to `COCCN1CCN(c2ccc(C#N)nc2)CC1=O`, the “% Inhibition” value is reported as -9% and the Z score worked out at 1.6.

Turning to `O=C(NCCOc1cccc(F)c1)NCC(F)F`, the “% Inhibition” value is -7% and the Z score came to 1.09.

Take `O=C(NC1CCCCC1)c1cc2n(n1)CCN(Cc1c(Cl)cccc1Cl)C2=O`: the “% Inhibition” value is recorded as -12% and the Z score came out at 1.53.

On to `O=C1CC2(CCN(C(=O)C3CC34CCOc3ccccc34)C2)CN1` (centres undefined), for which the “% Inhibition” value is on record as -3% and the Z score is given as 0.53.

On to `COc1cccc(-n2ccn3cc(-c4ccc5c(c4)OCO5)nc3c2=O)c1`, for which the “% Inhibition” value is 8% and the Z score was -1.02.

As for `O=C(CN(Cc1ccccc1)C(=O)c1ccccc1Cl)N1CCN(c2ccc(-c3ccc(Cl)cc3Cl)nn2)CC1`, the “% Inhibition” value is listed as -13% and the Z score was 1.76.

On to `CCCCCc1nnc(NC(=O)Cc2c[nH]c3ccccc23)s1`, for which the “% Inhibition” value stood at 3% and the Z score was -0.41.

For `COc1ccc(-c2cc(C(=O)Nc3c(C)n(C)n(-c4ccccc4)c3=O)no2)cc1OC`, the “% Inhibition” value is reported as 1% and the Z score is reported as -0.14.

Take `C[C@H](NC(=O)NCCC1CCCC1)c1nccs1`: the “% Inhibition” value was -2% and the Z score is recorded as 0.24.

On to `CC(C)(O)C(=O)N1CCC[C@H](NC(=O)c2ccc3ccccc3c2)C1`, for which the “% Inhibition” value was -1% and the Z score is listed as 0.1.

Regarding `COC1CCN(CCNC(c2ccccc2F)C2CC3CCC2C3)CC1` (centres undefined), the “% Inhibition” value was -12% and the Z score is reported as 1.59.
